{
  "source": "PubChem BioAssay (Tox21)",
  "note": "Several values for one entry are separate records, joined by “and”; a condition that tells them apart may be missing. Equal values may be shown once. The shares of active, inactive and inconclusive entries below differ from those in the screen. Where the call is inconclusive, the potency comes from a doubtful curve fit. Activity calls are given as the source filed them. Calls come from the whole dose curve; as a rule, active = well fitted curve in the direction sought with a large enough effect in the repeat runs; inconclusive = weak or mixed curves; inactive = no such curve, though single readings can be large; an effect the other way counts as inactive or inconclusive. % is set by controls: 0 for no effect and ±100 for the full control effect; potency is the fitted concentration of half-maximal effect; tags give direction and shape of the fitted curve.",
  "data": [
    {"test": "Caspase-3/7 induction in CHO-K1 cells by small molecules, qHTS assay (AID 1346980); note: nearly all actives have a fitted effect of over 15% in size", "conditions": "CHO-K1 caspase-3/7 induction, Caspase-Glo luminescence, 17 h; series mostly up to 92.4 µM; caspase-3/7 activation: at the top concentration", "in_short": "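Wild-type CHO-K1 cells exposed to compounds for 17hr at 37 C, 5% CO2. Caspase-3/7 activity then measured by Caspase-Glo 3/7 luminescence after 30min at room temperature.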", "values": [
      {"smiles": "C=C1CC[C@H](O)CC1=C/C=C1\\CCC[C@]2(C)[C@@H]([C@H](C)/C=C/[C@H](C)C(C)C)CC[C@@H]12", "Potency": "inconclusive: 68 µM [activator, single point] and inconclusive: 68.6 µM [activator, single point]"},
      {"smiles": "Cc1ccc(C(=O)Oc2ccc(C(O)CNC(C)(C)C)cc2OC(=O)c2ccc(C)cc2)cc1", "note": "(centres undefined)", "Potency": "inconclusive: 33.5 µM [activator, single point]"},
      {"smiles": "COCc1c(C(C)C)nc(C(C)C)c(/C=C/[C@@H](O)C[C@@H](O)CC(=O)O)c1-c1ccc(F)cc1", "Potency": "inconclusive: 0.382 µM [activator, partial curve]"},
      {"smiles": "CC/C=C\\CCO", "caspase-3/7 activation": "inactive: 0.777%"}
    ]},
    {"test": "Caspase-3/7 induction in HepG2 cells by small molecules, qHTS cell viability counter screen (AID 1346981); note: nearly all actives have a fitted effect of over 30% in size", "conditions": "CellTiter-Fluor fluorescence, 17 h; series mostly up to 92.4 µM; activity change, negative = cytotoxicity: at the top concentration", "in_short": "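Multiplexed with the caspase-3/7 assay: HepG2 cells, 16 hr compound treatment, CellTiter-Fluor viability detection by fluorescence.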", "values": [
      {"smiles": "Cc1c(-c2ccc(O)cc2)n(Cc2ccc(OCCN3CCCCCC3)cc2)c2ccc(O)cc12", "Potency": "active: 29.8 µM"},
      {"smiles": "CN1CCCCC1CCN1c2ccccc2Sc2ccc(S(C)=O)cc21", "note": "(centres undefined)", "Potency": "inconclusive: 33.5 µM [cytotoxic, single point]"},
      {"smiles": "C=C1CC[C@H](O)CC1=C/C=C1\\CCC[C@]2(C)[C@@H]([C@H](C)/C=C/[C@H](C)C(C)C)CC[C@@H]12", "Potency": "inconclusive: 68 µM [cytotoxic, partial curve, poor fit] and inconclusive: 30.6 µM [cytotoxic, full curve]"},
      {"smiles": "N=C(N)c1ccc(OCCCCCOc2ccc(C(=N)N)cc2)cc1", "Potency": "inconclusive: 23.2 µM [cytotoxic, full curve]"},
      {"smiles": "C=CCCCCCCCCC(=O)OCCCC", "Potency": "inconclusive: 30.6 µM [rising, single point]"},
      {"smiles": "CCCCCCC[N+](CC)(CC)CCCCc1ccc(Cl)cc1", "Potency": "inconclusive: 29.8 µM [cytotoxic, partial curve, poor fit]"},
      {"smiles": "c1ccc(C[P+](c2ccccc2)(c2ccccc2)c2ccccc2)cc1", "Potency": "inconclusive: 21.7 µM [cytotoxic, full curve]"},
      {"smiles": "Clc1ccc(Cl)c(Cl)c1Cl", "Potency": "inconclusive: 30.6 µM [rising, partial curve]"},
      {"smiles": "COCc1c(C(C)C)nc(C(C)C)c(/C=C/[C@@H](O)C[C@@H](O)CC(=O)O)c1-c1ccc(F)cc1", "Potency": "inconclusive: 1.68 µM [cytotoxic, full curve] and inconclusive: 21.5 nM [cytotoxic, full curve]"},
      {"smiles": "CC(=O)S[C@@H]1CC2=CC(=O)CC[C@]2(C)[C@H]2CC[C@@]3(C)[C@@H](CC[C@@]34CCC(=O)O4)[C@H]12", "Potency": "inconclusive: 21.7 µM [cytotoxic, partial curve]"},
      {"smiles": "CCN(CC)C(=O)/C(C#N)=C/c1cc(O)c(O)c([N+](=O)[O-])c1", "Potency": "active: 29.8 µM"},
      {"smiles": "CO[C@H]1C=CO[C@@]2(C)Oc3c(C)c(O)c4c(O)c(c5c(c4c3C2=O)=NC2(CCN(CC(C)C)CC2)N=5)NC(=O)/C(C)=C\\C=C/[C@H](C)[C@H](O)[C@@H](C)[C@@H](O)[C@@H](C)[C@H](OC(C)=O)[C@@H]1C", "Potency": "active: 30 µM"},
      {"smiles": "COc1ccc(CCN(C)CCCC(C#N)(c2cc(OC)c(OC)c(OC)c2)C(C)C)cc1OC", "note": "(centres undefined)", "Potency": "inconclusive: 23.7 µM [cytotoxic, partial curve]"},
      {"smiles": "CN(C)CCCN1c2ccccc2CCc2ccccc21", "Potency": "inconclusive: 54.5 µM [cytotoxic, partial curve] and inconclusive: 37.6 µM [cytotoxic, single point]"},
      {"smiles": "OCCNCc1ccccc1", "activity change, negative = cytotoxicity": "inactive: -2.25%"}
    ]}
  ]
}
